# PubChem BioAssay AID540317 (National Center for Advancing Translational Sciences (NCATS), 2011)
# Hit rate of the full screen: of about 390,000 compounds, about 2,200 (0.56%) were called active. The inconclusive results got no clear call from the source; some entries with a clear call stand among them for comparison. The call rests on the fitted dose curve; in most records, active means well fitted inhibition curve with a large enough effect; inconclusive means small, poorly fitted or top-dose-only effect; inactive means no such curve, though single readings can be large or run the other way. A potency beside an inconclusive call is a rough fit, not a confirmed value.
# Target: Chromobox protein homolog 1 (Homo sapiens) (UniProt P83916)
# Assay: HTS for Inhibitors of HP1-beta Chromodomain Interactions with Methylated Histone Tails; further: nearly all actives have a fitted effect of over 70% in size
# Settings: AlphaScreen HP1-beta / biotin-H3K9me3 peptide binding; series mostly up to 114 µM; activity change, negative = inhibition: at the top concentration
# In short: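 AlphaScreen: HP1-beta (50 nM) preformed 30 min with biotin-H3(1-18)K9me3 peptide (50 nM) in PBS pH 7.4, 0.01% Tween-20. Compound added for 30 min at RT, then streptavidin donor/nickel chelate acceptor beads (10 ug/mL) for 30 min.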
# Potency means the concentration at half of the fitted maximal effect; tags describe the fitted curve by direction and shape.
# Chain of UniProt P83916 (P83916 whole entry, looked up): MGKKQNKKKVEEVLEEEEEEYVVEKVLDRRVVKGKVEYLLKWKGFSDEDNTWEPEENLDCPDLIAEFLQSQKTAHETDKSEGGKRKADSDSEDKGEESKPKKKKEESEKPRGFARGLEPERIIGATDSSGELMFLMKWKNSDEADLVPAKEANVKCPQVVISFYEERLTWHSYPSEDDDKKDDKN
Compound,"activity change, negative = inhibition",Potency
O=C(C(=O)N1CCN(c2ccccc2)CC1)c1c[nH]c2ccccc12,inactive: 2.81%,
CC(C)(C)CC(=O)NCC(c1ccc2c(c1)OCO2)N1CCN(c2ccccc2)CC1 (stereo not drawn),inactive: 19.3% [at 57 µM],
COc1ccc(C2C(C#N)=C(SC)NC3=C2C(=O)CC(C)(C)C3)cc1 (stereo not drawn),inactive: 52.1%,
Cc1nc2ccccc2c2c1C(=O)N(C1CCCCCCC1)C2=O,,"inconclusive: 7.94 µM [inhibitor, partial curve, poor fit]"
Fc1ccccc1/C=N/n1c(COc2ccccc2)n[nH]c1=S,,"inconclusive: 39.8 µM [inhibitor, partial curve]"
CCCCN1C(=N)N([C@@H](CCC)CN2CCC[C@H]2CN2C(N)=NC[C@H]2C(C)C)C[C@H]1[C@H](C)CC,inactive: 27.9%,
CCNC(=O)C(=O)NCC1OCCCN1S(=O)(=O)c1cccs1 (stereo not drawn),,"inconclusive: 39.8 µM [inhibitor, single point]"
Cc1ccc(-c2nn(-c3ccccc3)cc2/C=C2\SC(=S)N(CCCCCC(=O)O)C2=O)o1,,"inconclusive: 28.2 µM [inhibitor, single point]"
O=C(O)c1cccc(N/N=C(\N=Nc2ccccc2)c2ccccc2)c1,,active: 35.5 µM
Cc1ccc([N+](=O)[O-])c(OCCN2CCC(Cc3ccccc3)CC2)c1,,"inconclusive: 56.2 µM [inhibitor, partial curve, poor fit]"
CCCOc1cccc(C2C(C(=O)c3ccc(C)o3)=C(O)C(=O)N2CCN2CCOCC2)c1 (stereo not drawn),inactive: 47%,
CN(C(=O)CSc1nnc(-c2ccc(F)cc2)n1C)C1CCS(=O)(=O)C1 (stereo not drawn),inactive: 23.2%,
CCN(CC)P(=O)(Nc1ccc(C)cc1Br)c1ccc(N(C)C)cc1NC(=O)c1ccco1 (stereo not drawn),,"inconclusive: 35.5 µM [inhibitor, partial curve]"
CC1=CC(C)(C)Nc2ccc(Cc3ccc4c(c3)C(C)=CC(C)(C)N4)cc21,,"inconclusive: 17.8 µM [inhibitor, full curve]"
COc1ccc(NC(=O)c2c(NCc3sccc3C)sc3c2CCCC3)c(OC)c1,,"inconclusive: 22.4 µM [inhibitor, full curve]"
Cc1ccc(-c2nc(C#N)c(N3CCC(C)CC3)o2)cc1,,"inconclusive: 15.8 µM [inhibitor, full curve]"
CCc1nc(C)ccc1OCC(=O)N(CC)CC,,"inconclusive: 70.8 µM [inhibitor, single point]"
COc1cccc(/C=C2\SC(=S)N(CCC(=O)N3CCCCC3CCO)C2=O)c1 (stereo not drawn),,"inconclusive: 50.1 µM [inhibitor, partial curve]"
COc1ccccc1CNC(=O)CC(C)C,,"inconclusive: 17.8 µM [inhibitor, partial curve]"
Clc1ccccc1CN1CCC(Cc2ccccc2)CC1,,"inconclusive: 22.4 µM [inhibitor, single point]"
NC(=O)N/N=C/c1sc(N2CCCCC2)nc1-c1cccs1,,"inconclusive: 39.8 µM [inhibitor, partial curve]"
COc1ccc(CNC2CCCCC2C)c(OC)c1 (stereo not drawn),,"inconclusive: 56.2 µM [inhibitor, partial curve, poor fit]"
CCOc1ccc(S(=O)(=O)Nc2cccc(-c3ccc(OCC)nn3)c2)cc1,inactive: -7.48% [at 57 µM],

Compound,"activity change, negative = inhibition",Potency
CCCS(=O)(=O)N1CCN(Cc2ccncc2)CC1,,"inconclusive: 79.4 µM [inhibitor, partial curve]"
O=C(Nc1cccc(Cl)c1)Nc1cc(S(=O)(=O)N2CCOCC2)ccc1N1CCCC1,,"inconclusive: 31.6 µM [inhibitor, partial curve, poor fit]"
CCOC(=O)c1[nH]c(CN2CCN(c3ccc(OC)cc3)CC2)c(C(=O)OCC)c1C,,active: 44.7 µM
O=C(c1ccc(F)cc1)N1CCN(C2CCC(c3ccccc3)CC2)CC1 (stereo not drawn),,"inconclusive: 20 µM [inhibitor, partial curve, poor fit]"
Cc1c(CC(=O)NCC(C)C)c(=O)oc2cc3c(cc12)CCC(C)(C)O3,inactive: 29.8%,
Cc1ccccc1N(CC(=O)N/N=C/c1ccc(N(C)C)cc1)C(=O)c1ccccc1,,"inconclusive: 20 µM [inhibitor, full curve]"
Cc1ccc(/C=C2\SC(=S)N(CCCC(=O)Nc3ccc(O)cc3)C2=O)cc1,inactive: -1.61%,
O=C(COc1ccccc1)OCc1cc(=O)n2nc(C3CC3)sc2n1,inactive: 38.3%,
COc1ccc(N2CCC(CNC(=S)Nc3cc(C)ccc3C)C2)cc1 (stereo not drawn),,"inconclusive: 20 µM [inhibitor, full curve]"
COc1cc(O)c(C(C)=O)c(CC(=O)O)c1,,"inconclusive: 25.1 µM [inhibitor, full curve]"
CCOc1ccc(OCC)c(NC(=O)CN2CCN(CC(=O)NC(C)C)CC2)c1,,"inconclusive: 14.1 µM [inhibitor, partial curve, poor fit]"
COc1ccc(C(=O)NC2CCCc3ccccc32)cc1[N+](=O)[O-] (stereo not drawn),inactive: 22.5%,
Cc1cc(Nc2ccccc2)c2c([N+](=O)[O-])ccc(C)c2n1,,"inconclusive: 39.8 µM [inhibitor, partial curve]"
CC1CC(C)CN(CCOCCSc2ccccc2)C1 (stereo not drawn),,"inconclusive: 20 µM [inhibitor, full curve, poor fit]"
COc1ccc(CCC(=O)NCC(c2ccco2)N2CCc3ccccc32)cc1 (stereo not drawn),,"inconclusive: 70.8 µM [inhibitor, partial curve]"
CCOC(=O)c1c(-c2ccc(C)o2)csc1NC(=O)CSc1nncs1,,"inconclusive: 50.1 µM [inhibitor, partial curve]"
O=C(Nc1ncc2c(n1)CC(c1cccc(Cl)c1)CC2=O)c1ccco1 (stereo not drawn),inactive: 7.05%,
COc1ccc(S(=O)(=O)N2CCCOC2CNC(=O)C(=O)NCCc2ccco2)cc1 (stereo not drawn),inactive: -7.38%,
COc1ccc(N2CCN(C(c3ccccc3)c3sc4nc(-c5ccco5)nn4c3O)CC2)cc1 (stereo not drawn),,"inconclusive: 56.2 µM [inhibitor, partial curve, poor fit]"
CC(c1ccccc1F)n1cc(C(=O)NCCc2ccco2)nn1 (stereo not drawn),inactive: 19.3%,
Cc1ccc(C(=O)N2CCc3cc(CNS(=O)(=O)c4cccs4)ccc32)cc1,inactive: 29.9% [at 57 µM],
CC1CCCN(CCOc2cccc(Oc3ccccc3)c2)C1 (stereo not drawn),,"inconclusive: 12.6 µM [inhibitor, full curve]"
Cc1cc(F)ccc1S(=O)(=O)Nc1ccc2oc3c(c2c1)CC(C)CC3 (stereo not drawn),inactive: -0.28%,

Compound,"activity change, negative = inhibition",Potency
C=CCNC(=O)COC(=O)c1c2c(nc3ccccc13)CCC2,,"inconclusive: 70.8 µM [inhibitor, partial curve, poor fit]"
COCc1nnc(NC(=O)CCS(=O)(=O)c2ccccc2)s1,,"inconclusive: 35.5 µM [inhibitor, partial curve, poor fit]"
O=C(CCC(=O)N1CC2CCCN2c2ccccc21)NCc1cccc(Cl)c1 (stereo not drawn),,"inconclusive: 39.8 µM [inhibitor, partial curve]"
C/C(=C\C(=O)c1cccnc1)Nc1ccc(O)cc1,,"inconclusive: 39.8 µM [inhibitor, partial curve, poor fit]"
COc1ccc(-c2n[nH]c(=S)n2/N=C/c2cccn2C)cc1,,"inconclusive: 44.7 µM [inhibitor, partial curve, poor fit]"
CCc1cc(C(=O)N2CCc3c([nH]c4ccccc34)C2c2ccc(OC)cc2F)no1 (stereo not drawn),,"inconclusive: 22.4 µM [inhibitor, full curve, poor fit]"
CCOc1cc(/C=C2/SC(=S)N(Cc3ccccc3)C2=O)ccc1O,,"inconclusive: 44.7 µM [inhibitor, partial curve]"
COc1ccc2[nH]c3c(=O)n(Cc4ccc(C(=O)N5CCCC5)cc4)c(=S)[nH]c3c2c1,,"inconclusive: 7.08 µM [inhibitor, full curve, poor fit]"
CC(C(=O)O)N1C(=O)/C(=C/C=C/c2ccco2)SC1=S (stereo not drawn),,"inconclusive: 7.94 µM [inhibitor, full curve, poor fit]"
O=S(=O)(Nc1cc(F)ccc1F)c1cccc2nsnc12,inactive: 28.4%,
Cc1cc2c(cc1C)N(C(=O)CSC1=NCCS1)C(C)(C)c1ssc(=S)c1-2,,"inconclusive: 3.16 µM [inhibitor, full curve, poor fit]"
CCC1(c2ccccc2)NC(=O)N(CC(=O)Nc2ccc(N3CCCC3)cc2C)C1=O (stereo not drawn),,"inconclusive: 56.2 µM [inhibitor, partial curve, poor fit]"
CCN(CC)S(=O)(=O)c1ccc(NN=C2CCN(C)CC2)c([N+](=O)[O-])c1,,"inconclusive: 56.2 µM [inhibitor, single point]"
O=C(CCS(=O)(=O)c1ccccc1)Nc1ccccn1,,"inconclusive: 89.1 µM [inhibitor, single point]"
Cc1ccc(NC(=O)CN(C)Cc2c(O)ccc3ccccc23)cc1,inactive: -12.3%,
CN(/N=C/c1ccncc1)C1=NS(=O)(=O)c2ccccc21,inactive: 32.9%,
CCc1ccc(C2c3[nH]c4ccccc4c3CCN2C(=O)CN2CCN(CC)CC2)cc1 (stereo not drawn),,"inconclusive: 31.6 µM [inhibitor, partial curve, poor fit]"
CCN(CC)c1ccc(NC(=O)CCNS(=O)(=O)c2ccc3c(c2)CCC(=O)N3)c(C)c1,,"inconclusive: 44.7 µM [inhibitor, partial curve]"
CCOC(=O)C1=C(CC)Nc2ccccc2N=C1NC(=O)c1ccc(S(=O)(=O)N2CCOCC2)cc1,inactive: 57.2%,
Cc1cccc(CSCc2ccc(C(=O)O)o2)c1,,"inconclusive: 39.8 µM [inhibitor, single point]"
Cc1ccccc1N1CCN(CCCOc2ccc3c(C)cc(=O)oc3c2)CC1,,"inconclusive: 28.2 µM [inhibitor, single point]"
CN(C)c1ccc(N=Nc2ccccc2C(=O)OCC(=O)N2CCCC2)cc1,,"inconclusive: 56.2 µM [inhibitor, single point]"
